In the supplement of paper PMC10369915:
The other results are listed elsewhere or left out. Cut-off read from the data, not from the text of the source: active = 3.2 or more and inactive = the rest. The signal is at background level for most entries.

Experiments:
Test in all cases: enrichment score (SH2-bound / input frequency) (ratio); bacterial display of known human phosphotyrosine sites (pTyr-Var adds point mutants) read by sequencing; higher = stronger binding; tyrosines were phosphorylated by kinases first
Conditions in all cases: peptide library: Human pTyr
SHP2 C-SH2 domain E139D = target: SHP2 C-SH2 domain E139D
[1] = target: SHP2 C-SH2 domain wild-type
SHP2 N-SH2 domain L43F = target: SHP2 N-SH2 domain L43F
SHP2 N-SH2 domain T42A = target: SHP2 N-SH2 domain T42A
SHP2 N-SH2 domain T52S = target: SHP2 N-SH2 domain T52S
[2] = target: SHP2 N-SH2 domain wild-type
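Note: displayed peptides selected on beads carrying the immobilized SH2 domain, with library peptides lacking any tyrosine serving as negative controls.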

| Binder | enrichment score (SHP2 C-SH2 domain E139D) | enrichment score [1] | enrichment score (SHP2 N-SH2 domain L43F) | enrichment score (SHP2 N-SH2 domain T42A) | enrichment score (SHP2 N-SH2 domain T52S) | enrichment score [2] |
| --- | --- | --- | --- | --- | --- | --- |
| EENESPHYDDVHEAL [CLIC5_HUMAN_33_YA] | inactive: 1.13 | inactive: 0.8 | inactive: 0.903 | inactive: 0.915 | inactive: 0.912 | inactive: 1.51 |
| DAEGHLIYHVGDWLQ [CLK2_HUMAN_153] | inactive: 0.725 | inactive: 0.674 | inactive: 0.786 | inactive: 0.86 | inactive: 0.771 | inactive: 0.77 |
| DTDYRHSYEYQRENS [CLK2_HUMAN_99] | inactive: 0.642 | inactive: 0.588 | inactive: 0.772 | inactive: 0.522 | inactive: 0.624 | inactive: 0.566 |
| KGHSDDDYDDPELRM [CLNK_HUMAN_69] | inactive: 0.992 | inactive: 0.907 | inactive: 0.777 | inactive: 0.863 | inactive: 0.845 | inactive: 0.943 |
| YFASVRAYNTAGTGP [CNTN6_HUMAN_882] | inactive: 0.477 | inactive: 0.446 | inactive: 0.559 | inactive: 0.456 | inactive: 0.497 | inactive: 0.567 |
| AFASVRAYNTAGTGP [CNTN6_HUMAN_882_YA] | inactive: 0.509 | inactive: 0.438 | inactive: 0.567 | inactive: 0.436 | inactive: 0.597 | inactive: 0.388 |
| GERQLYCYEVVPQQP [CORO7_HUMAN_288] | inactive: 1.34 | inactive: 1.39 | inactive: 1.16 | inactive: 1.56 | inactive: 1.45 | inactive: 1.59 |
| GERQLACYEVVPQQP [CORO7_HUMAN_288_YA] | inactive: 1.07 | inactive: 1.12 | inactive: 1 | inactive: 1.26 | inactive: 1.34 | inactive: 1.44 |
| GDTRVFLYELLPESP [CORO7_HUMAN_758] | inactive: 1.22 | inactive: 1.25 | inactive: 1.01 | inactive: 1.3 | inactive: 1.36 | inactive: 1.41 |
| NLQNGPIYARVIQKR [CRK_HUMAN_239] | inactive: 1.16 | inactive: 0.876 | inactive: 1.23 | inactive: 1.05 | inactive: 1.06 | inactive: 1.2 |
| TAEDNLEYVRTLYDF [CRKL_HUMAN_127] | inactive: 0.726 | inactive: 0.926 | inactive: 0.868 | inactive: 1.03 | inactive: 1.24 | inactive: 1.22 |
| EAPGEQLYQQSRAYV [CS025_HUMAN_63] | inactive: 0.702 | inactive: 0.46 | inactive: 0.531 | inactive: 0.601 | inactive: 0.712 | inactive: 0.629 |
| KYKQKPKYQVRWKII [CSF1R_HUMAN_546] | active: 3.54 | active: 4.4 | active: 6.17 | inactive: 3.09 | active: 3.86 | active: 5.78 |
| KAKQKPKYQVRWKII [CSF1R_HUMAN_546_YA] | inactive: 3.08 | active: 3.32 | inactive: 3.11 | inactive: 2.93 | active: 3.3 | active: 3.79 |
| SSSSVVPYLPRLPIL [ABL2_HUMAN_568] | inactive: 0.73 | inactive: 0.636 | inactive: 0.599 | inactive: 0.641 | inactive: 0.737 | inactive: 0.687 |
| NIHLEKKYVRRDSGF [CSF1R_HUMAN_708] | inactive: 1.07 | inactive: 1.01 | inactive: 1.22 | inactive: 0.972 | inactive: 1.65 | inactive: 1.18 |
| SSQGVDTYVEMRPVS [CSF1R_HUMAN_723] | inactive: 0.599 | inactive: 0.531 | inactive: 0.793 | inactive: 0.529 | inactive: 0.523 | inactive: 0.686 |
| VLQQVGDYCFLPGLG [CSF2RB_HUMAN_822] | inactive: 1.33 | inactive: 1.61 | inactive: 1.17 | inactive: 1.19 | inactive: 1.27 | inactive: 1.58 |
| VAAQDEFYRSGWALN [CSK_HUMAN_184] | inactive: 0.755 | inactive: 0.669 | inactive: 0.795 | inactive: 0.644 | inactive: 0.545 | inactive: 0.751 |
